Laboratory results: PMC5836133
The list shows a part of the results. At the low end of the ranking the order means little.

What follows are sequences tested on T1, GST-NbGlk1(82-244) (assay: protein-binding microarray). Conditions: NbGlk1 is a Golden2-like transcription factor of Nicotiana benthamiana; high values mean tight binding; most listed sequences are background and not binding sites; double strand, one strand shown.
T1 sequence: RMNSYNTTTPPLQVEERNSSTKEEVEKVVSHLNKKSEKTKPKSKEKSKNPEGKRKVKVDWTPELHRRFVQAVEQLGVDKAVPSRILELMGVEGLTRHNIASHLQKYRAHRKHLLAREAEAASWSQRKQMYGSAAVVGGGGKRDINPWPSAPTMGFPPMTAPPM
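Note: rank-based score ranging −0.5 to +0.5 with E above 0.45 taken as significant binding.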

Sequence	binding signal
ACCACTGA	0.0673 E-score
AGACCTAC	-0.133 E-score
AGGTACAG	-0.259 E-score
CACGGAGC	-0.182 E-score
CAGCCCTC	-0.207 E-score
AAGTTAGG	0.0264 E-score
ACCTGCGG	-0.226 E-score
AGTATCGG	0.202 E-score
ATAGTTAA	0.0626 E-score
ACATCGAG	-0.0166 E-score
AAGGAAAC	-0.129 E-score
ACTAGATC	0.245 E-score
ACAAGCAA	0.021 E-score
ACTGAATA	0.204 E-score
CAAGAGGG	-0.222 E-score
AGCCGTTA	-0.144 E-score
AGTAACAA	-0.0684 E-score
AGTCTGAG	0.013 E-score
ACTCTAAC	0.00428 E-score
AGGCCCAC	-0.268 E-score
ACTGCACG	-0.0439 E-score
AGCCATGA	-0.0784 E-score

Sequence	binding signal
ACCTTCGC	-0.192 E-score
AATGTCCG	-0.189 E-score
ACTAATTC	0.133 E-score
AATGTCCT	-0.121 E-score
ACGCTCAG	-0.19 E-score
ACATAGCT	-0.0625 E-score
AAATACAA	0.125 E-score
AGCAACTA	0.0222 E-score
AGTTAATC	-0.128 E-score
ATGACATC	0.0226 E-score
CACATGGC	-0.22 E-score
ATTGGAGC	-0.0235 E-score
AAGACTGG	-0.0231 E-score
AGTAATCA	0.322 E-score
ACCGAGTC	-0.216 E-score
CACAATTA	0.0986 E-score
AAGCGCGA	0.136 E-score
ACGCAACC	0.0273 E-score
AGTGAACC	-0.119 E-score
ATGAAGTA	-0.175 E-score
AATTTCAA	0.246 E-score
AGGTTTAA	-0.143 E-score

Sequence	binding signal
AACGAAAT	0.344 E-score
AGCATCCC	-0.214 E-score
AGATGAAT	0.0627 E-score
AGTCATAC	0.0218 E-score
AGAAAGAC	-0.0251 E-score
AAGTCTTG	-0.143 E-score
AAGATAGA	0.0566 E-score
CAAGGGCG	-0.163 E-score
ATCGTGTG	0.108 E-score
CACCTTAC	-0.0494 E-score
AATATTTA	0.216 E-score
CACGGTGG	-0.137 E-score
AAAGACGT	0.0182 E-score
AATGAAGC	-0.12 E-score
AAATTCTA	0.245 E-score
CAAGTCCC	-0.118 E-score
CACGCCGA	-0.00601 E-score
ACGTCCGA	-0.236 E-score
ATGTAGCA	-0.0397 E-score
AAACCGGC	0.0103 E-score
ACCTGCGT	-0.171 E-score
AGCATGGC	-0.257 E-score

Sequence	binding signal
ATCCTGAC	0.301 E-score
CAGCGTCA	-0.0568 E-score
AAACGCAG	-0.0137 E-score
AAAGATGC	-0.0465 E-score
AAGGCTAT	-0.21 E-score
ACGCGGCC	-0.0956 E-score
AAGATTAT	0.288 E-score
AACTACAG	-0.19 E-score
AATCCTTC	0.265 E-score
ATAATAGG	0.0321 E-score
ATCTATGA	0.247 E-score
ATGCAAAA	0.0832 E-score
CACTAATA	0.151 E-score
AATCAACC	0.0711 E-score
AAGAAACA	0.00182 E-score
AAATCCCT	0.354 E-score
AACTGCGC	-0.0355 E-score
ATTCAGTC	0.0765 E-score
ATCGAAAG	0.0949 E-score
AGTTGCTC	-0.228 E-score
AGTTCCGC	-0.183 E-score
ATGACAAG	-0.0343 E-score

Sequence	binding signal
ACCCAATA	-0.0334 E-score
AAGGGAAC	-0.236 E-score
AGCCCCAC	-0.214 E-score
AACGAATC	0.367 E-score
AAACGTGC	-0.136 E-score
AAGCCTCG	-0.183 E-score
AAAGGCGA	-0.109 E-score
ACTCAACA	0.00303 E-score
ACCAATAT	0.204 E-score
ATTATGCA	0.135 E-score
AGCTACAC	0.0267 E-score
AAGCTTCC	-0.068 E-score
AGGACTGG	-0.158 E-score
AGCAGGCA	-0.204 E-score
ACCGGGTG	-0.12 E-score
ACCTTGAC	-0.0796 E-score
AGAGTCTA	-0.258 E-score
ACCCAGAC	-0.0566 E-score
AAATGCTA	0.0497 E-score
AAAAGCGA	0.0794 E-score
ATTACTGC	0.0977 E-score
